Data published in article PMC10983669.
These are yes or no findings as the source states them, for the method shown. Some results given as binding are weak or reduced against the parent protein; the word gives no strength. One block for each binder: values may come before it.

Experiments:
Assay in all cases: two-hybrid; fragments of dCTCF fused to GAL4 DNA-binding (pGBT9) or activation (pGAD424) domain in S. cerevisiae PJ69-4A; growth on medium lacking tryptophan, leucine, histidine and adenine at 30 °C, assessed after 3 days; repeated three times
dCTCF 1–170 (Drosophila) = target: T1, dCTCF 1–170 (Drosophila) (UniProt Q9VS55)
T1 sequence: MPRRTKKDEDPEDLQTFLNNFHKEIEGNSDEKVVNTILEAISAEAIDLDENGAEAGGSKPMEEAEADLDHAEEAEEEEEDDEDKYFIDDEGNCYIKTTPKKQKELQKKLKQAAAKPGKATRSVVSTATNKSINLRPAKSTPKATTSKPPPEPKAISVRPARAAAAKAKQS

dCTCF 1–90 (Drosophila) = dCTCF 1–90 (Drosophila) (UniProt Q9VS55)
dCTCF 1–132 (Drosophila) = dCTCF 1–132 (Drosophila) (UniProt Q9VS55)

- binding (dCTCF 1–170 (Drosophila)): no binding
- binding (dCTCF 1–90 (Drosophila)): no binding
B1: dCTCF 1–90 (domain or fragment, UniProt Q9VS55 1-90)
chain: MPRRTKKDEDPEDLQTFLNNFHKEIEGNSDEKVVNTILEAISAEAIDLDENGAEAGGSKPMEEAEADLDHAEEAEEEEEDDEDKYFIDDE

- binding (dCTCF 1–132 (Drosophila)): no binding
- binding (dCTCF 1–170 (Drosophila)): binds
B2: dCTCF 1–132 (domain or fragment, UniProt Q9VS55 1-132)
chain: MPRRTKKDEDPEDLQTFLNNFHKEIEGNSDEKVVNTILEAISAEAIDLDENGAEAGGSKPMEEAEADLDHAEEAEEEEEDDEDKYFIDDEGNCYIKTTPKKQKELQKKLKQAAAKPGKATRSVVSTATNKSI

- binding (dCTCF 1–170 (Drosophila)): binds
B3: dCTCF 1–170 (domain or fragment, UniProt Q9VS55 1-170)
chain: T1 sequence
